Source: the supplement of paper PMC7826260
This is one part of the list. Viral Rep nickase domains cut single-stranded DNA in vitro for 1 h at 37 °C with 3 µM enzyme; only the middle of the 90-letter strands is printed. Numbers give uncut DNA relative to the enzyme-free pool, as log2; the lower, the more was cut; hits are not called. The scaling is to total reads; values above 0 arise when much of the pool is cut.

System: T1, Rep nickase domain of tomato golden mosaic virus
T1 sequence (protein, residues 1-124, tag omitted): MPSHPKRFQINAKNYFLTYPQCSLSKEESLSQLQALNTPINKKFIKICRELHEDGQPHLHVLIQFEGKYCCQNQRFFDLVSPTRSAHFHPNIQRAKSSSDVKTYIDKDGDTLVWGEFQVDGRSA
Experiment: uncleaved DNA left, log2 of reads against the no-enzyme library (log2 ratio); higher = less cleavage (more negative = more Rep cleavage of the k-mer); sequences stand for … in CTCGTCCG…ACCGGAGA
Experimental: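 A pool of 90-nt single-stranded DNAs with seven random bases just before the constant AC of the nick site (name = the seven bases) was cut by 3 µM recombinant His6-SUMO-tagged Rep nickase domain (300 nM DNA, 50 mM HEPES pH 8.0, 50 mM NaCl, 1 mM MnCl2, 1 h, 37 °C, three replicates). Uncut DNA was amplified and sequenced.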

Sequence	uncleaved DNA left (log2)
ACGGTCA	0.0303
TCGTTTA	0.0271
CCGAGGT	0.0422
TTGCCTT	0.00294
AGGAGAG	0.0899
ATTGTCA	-0.0848
CTAATAT	-0.0232
TGGGGCA	-0.0289
TTGAGAG	0.0908
GAGGCAC	0.126
GGGTAAT	0.0482
CCCTGAT	0.0162
TGGTGTC	-0.118
TTTCCGA	-0.0481
CGCTAGT	-0.185
CACAACT	-0.22
CAGCGTC	-0.0726
ATTTGTG	0.0359
GCTCACT	-0.0382
AGAGAGC	0.0139

Sequence	uncleaved DNA left (log2)
GAGCGGA	0.0553
TTAGCCT	-0.195
TCAAAGC	0.0564
CAAGTGA	-0.0581
TGTCAAA	0.0227
CTGCCCG	-0.105
GGACACG	-0.00361
TACCGCC	-0.085
CGTGTTT	0.244
CCGGCAA	-0.0853
TACCGCT	-0.0532
CTCAGGA	-0.0833
GAGGCGG	0.11
TCACAGC	-0.0989
TCCACAC	-0.0561
GTTCTTG	0.103
AAGTGTA	0.00236
TAAAGAG	0.0903
AGGTGAA	0.0193
TCACTCG	-0.0179
